Laboratory results reported in patent US20220098305A1 (Hoffmann-La Roche, published 2022).

Key:
human ICOS [1] = biological target: T1, human ICOS (human, UniProt Q9Y6W8 21-199); assay: flow cytometry, CHO cells expressing human ICOS
T1 construct: The cell that carries it is named under assay; also called huICOS; CD278
T1 sequence: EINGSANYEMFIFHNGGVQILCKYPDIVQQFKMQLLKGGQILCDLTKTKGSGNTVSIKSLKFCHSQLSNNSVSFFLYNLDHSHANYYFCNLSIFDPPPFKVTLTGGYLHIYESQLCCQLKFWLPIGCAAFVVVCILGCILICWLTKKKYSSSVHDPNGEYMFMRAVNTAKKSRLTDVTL

human ICOS [2] = biological target: T1, human ICOS; assay: cell-based or functional assay

B1: Molecule 25 (ICOS H009v1_1) (antibody, human IgG1, kappa)
heavy: EVQLVESGGGLVQPGRSLRLSCTASGFTFSDYWMNWVRQAPGKGLEWVAQIRNKPYNYETYYSDSVKGRFTISRDDSKSIAYLQMNSLKTEDTAVYYCTWPRLRSSDWHFDVWGKGTTVTVSSASTKGPSVFPLAPSSKSTSGGTAALGCLVKDYFPEPVTVSWNSGALTSGVHTFPAVLQSSGLYSLSSVVTVPSSSLGTQTYICNVNHKPSNTKVDKKV[human IgG1 Fc with changes cut from this listing]
light: DIQMTQSPSSLSASVGDRVTITCQASQDINKNIAWYQQKPGKAPKLLIWYTSTLQTGVPSRFSGSGSGTDFTFTISSLQPEDIATYYCLQFDNLYTFGQGTKLEIKRTVAAPSVFIFPPSDEQLKSGTASVVCLLNNFYPREAKVQWKVDNALQSGNSQESVTEQDSKDSTYSLSSTLTLSKADYEKHKVYACEVTHQGLSSPVTKSFNRGEC
notes: Human IgG format
- EC50 (human ICOS [1]): 2.92 nM
- Max (Log10(MFI)) (human ICOS [1]): 6.55 Log10(MFI)
- EC50 of activation of Jurkat-NFAT reporter cell line (human ICOS [2]): ~8.11 nM
- Max (Counts/sec), Jurkat-NFAT reporter cell line (human ICOS [2]): 51000 Counts/sec

B2: Molecule 26 (ICOS H009v1_2) (antibody, human IgG1, kappa)
heavy: EVQLVESGGGLVQPGRSLRLSCTASGFTFSDYWMNWVRQAPGKGLEWVAQIRNKPYNYETYYSDSVKGRFTISRDDSKSIAYLQMNSLKTEDTAVYYCTWPRLRSSDWHFDVWGAGTTVTVSSASTKGPSVFPLAPSSKSTSGGTAALGCLVKDYFPEPVTVSWNSGALTSGVHTFPAVLQSSGLYSLSSVVTVPSSSLGTQTYICNVNHKPSNTKVDKKV[human IgG1 Fc with changes cut from this listing]
light: B1 light
notes: Human IgG format
- EC50 (human ICOS [1]): 5.26 nM
- Max (Log10(MFI)) (human ICOS [1]): 7.8 Log10(MFI)
- EC50 of activation of Jurkat-NFAT reporter cell line (human ICOS [2]): ~7.77 nM
- Max (Counts/sec), Jurkat-NFAT reporter cell line (human ICOS [2]): 55300 Counts/sec
